Measurements as given in the supplement of paper PMC11876631.
Where a chain is given by its changes, count along the chain named. In names and notes the source's numbering stands. ± gives the standard deviation of the averaged measurements. Laboratory Escherichia coli strains with one amino-acid change in an essential protein, pooled on minimal glucose agar with carbenicillin or gentamicin at twice the control MIC (plus kanamycin and chloramphenicol for the plasmids), 48 h. Fold change of barcode share against drug-free plates; higher = less susceptible. Active = above 20 in both replicates (the paper's putatively resistant). '<' = one read or none on drug, '>' = one read or none on a drug-free plate. Shares are relative, so most strains fall below 1 when a few take over. Listed are strains with at least 15 reads on both drug-free plates, and hits; most hits rest on fewer reference reads. Replicate rank correlation about 0.5. Edits are read from barcodes.

Biological target: Escherichia coli (laboratory strain)
Experiment: barcode share on antibiotic plates over drug-free plates; higher = less susceptible
Description: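 A pool of E. coli strains, each edited to carry one amino-acid change in an essential protein, was grown for 48 h on minimal glucose agar with or without antibiotic; strain barcodes were sequenced; mean of two replicates.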

[1] = antibiotic: carbenicillin, 2× MIC (3.1 µg/mL)
[2] = antibiotic: gentamicin, 2× MIC (MIC 0.45 µg/mL)

B1: plsB M430W (protein)
chain: MSGWPRIYYKLLNLPLSILVKSKSIPADPAPELGLDTSRPIMYVLPYNSKADLLTLRAQCLAHDLPDPLEPLEIDGTLLPRYVFIHGGPRVFTYYTPKEESIKLFHDYLDLHRSNPNLDVQMVPVSVMFGRAPGREKGEVNPPLRMLNGVQKFFAVLWLGRDSFVRFSPSVSLRRMADEHGTDKTIAQKLARVARMHFARQRLAAVGPRLPARQDLFNKLLASRAIAKAVEDEARSKKISHEKAQQNAIALMEEIAANFSYEMIRLTDRILGFTWNRLYQGINVHNAERVRQLAHDGHELVYVPCHRSHMDYLLLSYVLYHQGLVPPHIAAGINLNFWPAGPIFRRLGAFFIRRTFKGNKLYSTVFREYLGELFSRGYSVEYFVEGGRSRTGRLLDPKTGTLSMTIQAMLRGGTRPITLIPIYIGYEHVWEVGTYAKELRGATKEKESLPQMLRGLSKLRNLGQGYVNFGEPMPLMTYLNQHVPDWRESIDPIEAVRPAWLTPTVNNIAADLMVRINNAGAANAMNLCCTALLASRQRSLTREQLTEQLNCYLDLMRNVPYSTDSTVPSASASELIDHALQMNKFEVEKDTIGDIIILPREQAVLMTYYRNNIAHMLVLPSLMAAIVTQHRHISRDVLMEHVNVLYPMLKAELFLRWDRDELPDVIDALANEMQRQGLITLQDDELHINPAHSRTLQLLAAGARETLQRYAITFWLLSANPSINRGTLEKESRTVAQRLSVLHGINAPEFFDKAVFSSLVLTLRDEGYISDSGDAEPAETMKVYQLLAELITSDVRLTIESATQGEG
Question: Which results are given for B1?
Answer: fold change of barcode share [1]: 1.22 ± 0.42; fold change of barcode share [2]: < 0.0103

B2: plsB M430Q (protein)
chain: B1 chain with W430Q
Question: Which “fold change of barcode share” value [1] does the source give for B2 here?
Answer: 0.589 ± 0.15

Question: What about the “fold change of barcode share” value [2] of the same protein?
Answer: 0.0198 ± 0.022

B3: plsB M430P (protein)
chain: B1 chain with W430P
Question: How did the “fold change of barcode share” value [1] turn out when B3 was run?
Answer: 0.367 ± 0.031

Question: And the “fold change of barcode share” value [2]?
Answer: 0.125 ± 0.16

B4: plsB M430D (protein)
chain: B1 chain with W430D
Question: B4 was tested. Which “fold change of barcode share” value [1] did it give?
Answer: 0.245 ± 0.076

Question: What about the “fold change of barcode share” value [2] of the same protein?
Answer: < 0.00461
